Reference: PubChem BioAssay (NCI)
Some compounds were tested as several samples or in several runs, with calls that do not always agree.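 Negative percent growth values reflect cell death: -40 means 40% of the cells present at the start died, and -100 means all died.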 The source holds more than one record for some entries. This is not the full list of results. There may be further records. The calls were made as follows: active = growth percent below 10; inactive = the rest. The screen tested this drug many times, at the concentration stated with the values; each value is one run. Marks such as (2×) stand for listed records that agree.

Tests used:
NCI-H460 lung = assay: NCI-60 one-dose screen, 48 h (100 = growth as untreated, 0 = no growth, -100 = all killed); conditions: 2.5 mM
HOP-92 NSCLC = assay: as above; conditions: 2.5 mM

For `O=c1[nH]cc(F)c(=O)[nH]1`, the growth (NCI-H460 lung; runs of 1996) was “active: -28.5, -100, -76.5, -46.7, -36.9, -61.9, -87.9, 3.77, -32.2, -43, -63.7, -39.2, -70.1, -27.8, -53.6, -77.2, -65.3, -24.3, -34 (2×), 5.11, -71.7, -74.7, -24.1, -24, -38.3, -9.38, -42.8, -8.41, 1.81, -32.3, -10.3, 2.25, -21.5, -11.6, -42.1, -20.5, 5.26, 0.28, 8.17, -7.04, 0.0869, -27.4, -6.12, 3.06, 5.31, -37.1, -28.4, -25.6, -3.7%”, the growth (NCI-H460 lung; runs of 1997) was “inactive: 16.8, 26.4, 31, 13, 24.6% and active: -33, -68.1, -40.1, -49.1, 1.18, 1.2, -62.1, -61.6 (2×), -63.4, -31.9, -83.3, 0.238, -39.2, -51.7, 2.01, -5.35, -12.3, 2.02, -48.4, -4.71, -75.1, -22.4, -25.4, -40.5, -2.91, 5.67, -17.8, -43.8, -24, 2.31, -62.2, -36.3, -22.3, 5.94, 6.49, 5.95, -22.7%” and the growth (NCI-H460 lung; runs of 1998) was “active: 2.95, -0.417, -5.68, 4.25, 1.36, -11.6, -4.04, -8.99, -47.3, -30.9, 7.59, 0.508, -26, 7.54, 2.65, -35.7, -54.4, -18.6, -8.87, -9.07, 1.13% and inactive: 18.7%, 11.6%, 15.5%”. The growth (NCI-H460 lung; runs of 1999) was “inactive: 16.5% and active: -23, -42.7, -77.5, -66.6, 1.06, 1.45, -2.5, 1.3, -8.06, -19.6, -22.9, 1.89, 1.92, -21.9, 2.1, 0.715, 0.857, -13.8, -5.65, 0.37, 1.31, 1.66, 2.59, 4.21, -5.81, -100 (2×), -57, 0.237, -30.2, -48.5, 0.671, 0.455, -1.4, 0.399, -29.9, -37.8, -65.6, -92.4, -77.6%”, the growth (NCI-H460 lung; runs of 2000) was “active: -44.5, -36.6, 0.967, -53.3%” and the growth (HOP-92 NSCLC; runs of 1991) was “inactive: 17.5, 38.5, 36.5, 49.2, 33.6, 45.3, 46.4, 68.1, 47.5, 59.2, 47.2% and active: -6.34%, -4.02%, 1.95%”. For the same compound, the growth (HOP-92 NSCLC; runs of 1992) was “inactive: 38.6, 36 (2×), 61.5, 54.8, 41.1 (2×), 33.6, 85.9, 25.8, 12.4, 60.2, 36.1 (2×), 59.5, 20.5, 49.3, 47.9, 54.2, 83.3, 48.3 (2×), 28.2, 23.7, 41.5, 48.7, 28.6, 39.6, 52.2, 34.8, 52.5, 32.7, 66.8, 48 (2×), 34.4 (2×), 29.2, 40.3, 34.5, 10.5, 10.8, 39.9, 21.3, 52.6 (2×), 69.4, 49.7, 22.5, 61, 26.2, 12.2, 25.7, 35.8 (2×), 20.2, 51.9, 43.5, 37.6, 46.9, 39.5, 49.5, 32.4, 45.4, 50.8, 52.9, 44.2, 41.7, 54.9, 38.1, 87.6, 50.1, 12.5, 34, 35.9, 43.4, 20.8, 27.5, 56.1, 61.8, 29.6, 65.4, 18.5, 47.8, 44.5, 50.6, 42.9, 61.2% and active: -11.7, -5.19, 6.21, -2.27, -8.32, -4.1, -4.94, -9.82, -13.1, 1.5, -9.74, -4.76, 8.58%”, the growth (HOP-92 NSCLC; runs of 1993) was “active: 9.06, -5.8, 2.75, -8.91% and inactive: 29.8, 41.5, 39.3, 48.9, 27.1, 41.1, 44.5, 39.5, 20.6, 70, 40.4, 52.3, 47.1, 50.1, 54, 63.8, 31.9, 43.4, 49, 34.3, 44.2, 40.3, 63.4, 21.7, 57.4, 63.5, 22.6, 27.9, 46.3, 61.6, 60.3, 80%” and the growth (HOP-92 NSCLC; runs of 1994) was “inactive: 16.1, 23.1, 72.7, 45.6, 29.8, 71.3, 24.2, 31.1, 43.8, 33.6, 33.2, 50.4, 11.8, 61.6, 34.8, 45.2, 49.8, 21.4, 67.9, 61.3, 59.1, 29.7, 33.7, 31.7, 34.6, 17.1% and active: -14.7, 6.88, -10.6, -10.3%”. For the same compound, the growth (HOP-92 NSCLC; runs of 1995) was “inactive: 49.1, 14.4, 12.4, 34, 24.1, 54.6, 24.3, 45.4, 16, 32.4, 29.9, 22.1, 13.2 (2×), 26, 30.1, 45.8, 35.1, 80.2, 27.4, 37.6, 12.3, 42.4, 46.8, 28.7% and active: 9.73, -1.66, -1.06, -14.9, -0.395, -1.85, -4.63, 2.46, -45.6%”, the growth (HOP-92 NSCLC; runs of 1996) was “inactive: 73, 39.9, 24.1, 16.5, 38.1, 40.7, 53.4, 56.1, 56.2, 69.6, 20.9, 63.7, 47.5, 14.9, 48.2, 51.9, 32.6 (2×), 54.7, 79, 59.9, 44, 89.3, 60.2, 58.8, 86.6, 39.2, 51.6, 20.1, 44.5, 25.3, 32.8, 67, 76.7, 57.8, 40.9% and active: -0.917, -10.6, 8.46, -3.11, 9.92, -15.8%” and the growth (HOP-92 NSCLC; runs of 1997) was “inactive: 48.1, 103, 14.6 (2×), 31.2, 44.6, 16.4, 30.8 (2×), 30.4, 40.6 (2×), 52.6, 21.3, 34.2, 112, 46.9, 34.6, 49.3, 34.4, 48.6, 32.6, 47.7, 34.3, 50.2, 32.7, 74.2, 45.9, 33.2, 55.1, 27.2% and active: -0.261, -19.6, 8.15, 6.73, -7.77, -8.12, -2.99%”. The growth (HOP-92 NSCLC; runs of 1998) was “inactive: 113, 33.8, 43, 87.5, 59.4, 46.5, 49.1, 73.3, 14, 32.7, 44.7, 56, 54.9, 45.6, 55.2, 68.8, 46.9, 42.5, 31.5, 44.1, 56.9, 78% and active: -8.12%, -6.41%”, the growth (HOP-92 NSCLC; runs of 1999) was “active: -8.47, -20.8, -0.12, -35.4, -24.1, 5.4, -48.6, -11.6, -47.2, -50.9% and inactive: 77.7, 19.9, 59.5, 20, 11.2, 11.8, 10.4%” and the growth (HOP-92 NSCLC; runs of 2000) was “active: 0.497, 5.45, -3.14, -27.9%”.
